The values below come from PubChem BioAssay AID463173 (ICCB-Longwood Screening Facility, Harvard Medical School, 2010).

Hit rate of the full screen: of about 52,000 compounds, about 4,300 (8.3%) were called active. No stated cut-off is given here; in the data, active means survival mostly below about 52% (no sharp cut-off); inactive means mostly above about 56%. The list shows a part of the results.

For this assay, the system named is DeltatarO mutant. Kind of assay: growth inhibition of S. aureus wild type versus tarO mutant, primary screen, teichoic acid synthesis inhibitors, RN4220, OD600 (AID 463173). The note with it: OD600, 18 h, active compounds read low, screened at 18.75 µg/mL (by protocol).
For `O=C(NC1CCCCCC1)N1CCOCC1`, the survival is inactive: 97%.

Turning to `COc1ccccc1Cc1nc2ccccc2nc1SCC(=O)N1CCC(C)CC1`, the survival was inactive: 89%.

`Cc1cccc(C(=O)Nc2ccc(N3CCN(c4ccc(F)cc4)CC3)c(C(=O)O)c2)c1`: the survival was inactive: 91%.

For the compound `CCOC(=O)c1cc(-c2ccccc2)n(CCCC(=O)Nc2cc(C)ccc2OC)c1C`, the survival was inactive: 82%.

`COc1ccc(NC(=O)Cn2c(=O)n(Cc3ccc(C(=O)NCc4ccccc4Cl)cc3)c(=O)c3ccccc32)cc1`: the survival was inactive: 83%.

`COc1ccc(Cn2nnc3c(=O)[nH]c(C4CCN(C(=O)c5ccc(C)cc5)CC4)nc32)cc1OC`: the survival is active: 24%.

Regarding `CCN(CC)CCCNC(=O)CN1N=C(c2ccccc2)CCC1=O`, the survival was inactive: 87%.

Take `Cc1cc(F)ccc1NC(=O)Cn1c(=O)ccc2cc(S(=O)(=O)N3CCC(C)CC3)ccc21`: the survival is inactive: 78%.

For the compound `Cc1cccc(NC(=O)CSc2nc3ccc(NC(=O)COc4ccccc4F)cc3s2)c1`, the survival was inactive: 94%.

On to `Cc1ccc(NC(=O)C2CCCN2S(=O)(=O)c2ccc3c(c2)CCCC(=O)N3)cc1Cl` (stereo not given), for which the survival was inactive: 89%.

In the case of `CC(NC(=O)c1ccco1)c1ccccc1` (stereo not given), the survival is inactive: 93%.

For `O=C(CSc1ccc2nc(-c3ccccc3)cn2n1)Nc1cccc(F)c1`, the survival is inactive: 90%.

On to `CC(C(=O)N1CCCCC1)N1CCC(N2CCCCC2)CC1` (stereo not given), for which the survival is inactive: 96%.

Consider `COc1ccc(NC(=O)c2c(NC(=O)Cc3ccccc3)sc3c2CCCC3)cc1`, for which the survival was inactive: 124%.

On to `Cc1cc(C)cc(NC(=O)Cn2c(C(F)(F)F)nc3ccccc32)c1`, for which the survival is active: 67%.

In the case of `Cc1sc(NC(=O)c2ccccc2F)c(C(=O)O)c1C`, the survival is inactive: 61%.

Turning to `Cc1oc(-c2cccc(Cl)c2)nc1Cn1c(SCc2ccccc2F)nc2ccncc21`, the survival is inactive: 63%.

As for `Cc1ccccc1NC(=O)CSc1nnc(-c2cccs2)o1`, the survival is inactive: 71%.

As for `CCCCNC(=O)C1CCN(Cc2ccccc2OCC)CC1`, the survival was inactive: 73%.

For the compound `COc1ccc(CCNC(=O)c2ccc3c(c2)N(Cc2ccccc2C)C(=O)c2ccccc2S3)cc1OC`, the survival is inactive: 118%.

In the case of `COc1ccccc1NC(=O)CSC1=Nc2ccccc2C2=NC(CC(=O)NCc3cccs3)C(=O)N12` (stereo not given), the survival is inactive: 83%.

As for `Cc1nn(CC(=O)N2CCN(c3cccc(C(F)(F)F)c3)CC2)c(=O)c2cccn12`, the survival was inactive: 92%.

As for `Cc1nn(C)c2c1c(C(F)(F)F)cc(=O)n2C(C)C(=O)NCc1ccccc1Cl` (stereo not given), the survival is inactive: 102%.

With `Cc1cc(C)c2c(c1)c1n[nH]c(=S)nc1n2C`, the survival was inactive: 76%.

As for `Cc1ccc(NC(=O)Cn2nnc(C(=O)NCc3cccs3)c2N)cc1Cl`, the survival is inactive: 92%.

On to `COC(=O)c1sccc1S(=O)(=O)N(CC(=O)NCc1ccc(F)cc1)c1ccc(Cl)cc1`, for which the survival was inactive: 88%.

For the compound `COc1ccc(CNC(=O)c2ccc(CNS(=O)(=O)c3ccc(F)cc3)cc2)cc1`, the survival is inactive: 82%.

With `Cc1cccc(NC(=O)CCc2c(C)nc3c(c(C)nn3C(C)(C)C)c2C)c1C`, the survival is inactive: 56%.

Turning to `O=C1COc2ccc(-c3cc(-c4ccccc4)c4c(n3)-c3cc(Cl)ccc3OC4)cc2N1`, the survival was inactive: 80%.

In the case of `CCN(C(=O)c1cn(CC)c(=O)c2cc(OC)c(OC)cc12)c1ccc(C)c(C)c1`, the survival is inactive: 169%.

Regarding `Cc1ccc(N2CCN(S(=O)(=O)c3ccc4[nH]c5c(c4c3)CCCCC5)CC2)c(C)c1`, the survival is inactive: 102%.

Turning to `COc1ccc(CNC(=O)c2cnc(N3CCOCC3)c3ccccc23)cc1`, the survival is inactive: 70%.

With `Fc1ccc(-c2cn3cc(Cc4ccccc4)sc3n2)cc1`, the survival is inactive: 81%.

`COc1ccc(NC(=O)CSc2nc(-c3ccco3)cc(C(F)(F)F)n2)cc1Cl`: the survival is active: 38%.

As for `CCCN(CCC)C(=O)Cn1c(=O)n(-c2ccc(Cl)cc2)c(=O)c2c3c(sc21)CCCC3`, the survival was inactive: 103%.

As to `CCc1ccc2oc(-c3cc(NC(=O)c4cc([N+](=O)[O-])ccc4N4CCOCC4)ccc3Cl)nc2c1`, the survival was inactive: 54%.

Consider `Cc1ccc(Cl)cc1N1CCN(C(=O)c2cc3c(-c4ccccc4F)nn(C)c3s2)CC1`, for which the survival was inactive: 66%.

In the case of `COc1ccc(-n2ncc(C(=O)N3CCOCC3)c2C2CCN(C(=O)OC(C)(C)C)CC2)cc1`, the survival is inactive: 65%.

On to `CCCCS(=O)(=O)c1nc(-c2ccc(Br)cc2)cc(-c2ccccc2)c1C#N`, for which the survival is inactive: 119%.

As to `Cc1cccc(N2CCN(C(c3ccccc3)c3nnc(-c4ccccc4Cl)o3)CC2)c1C` (stereo not given), the survival is inactive: 51%.

For `Cn1nnc2c(N3CCN(c4cccc(C(F)(F)F)c4)CC3)ncnc21`, the survival was inactive: 92%.

Consider `Fc1ccccc1N1CCN(c2ncc3c(n2)CCN(Cc2cc(Br)cs2)C3)CC1`, for which the survival is inactive: 60%.

As for `COc1ccc(OC)c(CNC(=O)CN2CC(C)Sc3ccccc32)c1` (stereo not given), the survival was inactive: 88%.

For `CC(=O)N1N=C(N)SC1c1ccccc1` (stereo not given), the survival was inactive: 65%.

In the case of `O=C(Nc1cccc(F)c1F)C1CCN(c2ncccn2)CC1`, the survival was inactive: 62%.

For `COc1cccc(-n2nnc(-c3nc(-c4ccccc4F)no3)c2C)c1`, the survival is inactive: 84%.

With `O=C(Nc1ccc(F)cc1)N1CCN(C(=O)c2nsc3ccccc23)CC1`, the survival is inactive: 55%.

Regarding `COC(=O)c1cc2occc2n1CC(=O)Nc1ccc(C(C)C)cc1`, the survival was inactive: 93%.

For `CCSc1nn(CC(=O)Nc2ccc(C(=O)OC)cc2)c(N)c1S(=O)(=O)c1ccc(C)cc1`, the survival was active: 37%.

For the compound `COc1ccc(-c2nc3c(c(SCC(=O)N4CCCCC4)n2)Cc2c(CO)cnc(C)c2O3)cc1`, the survival is inactive: 96%.

Take `COC(=O)c1cc(NC(=O)c2ccc3c(c2)NC(=O)c2ccccc2S3)cc(C(=O)OC)c1`: the survival was inactive: 54%.

In the case of `COc1ccc(CC(NC(C)=O)C(=O)N2CCN(C(=O)Nc3ccc(C#N)cc3)CC2)cc1` (stereo not given), the survival was inactive: 99%.

For the compound `Cc1ccc2c(c1)cc(CN(Cc1ccco1)S(=O)(=O)c1ccccc1)c1nnnn12`, the survival was inactive: 98%.

Regarding `O=C(/C=C\c1ccccc1)NC1CC(=O)N(c2ccccc2)C1` (stereo not given), the survival is inactive: 124%.

As to `Cc1cc(C)c2c(n1)sc1c(=O)n(-c3cc(Cl)ccc3C)nnc12`, the survival is inactive: 84%.

`Cc1cccc2sc(N(CCCN(C)C)C(=O)COc3ccccc3)nc12`: the survival is inactive: 109%.

`CCNc1ncnc2c1oc1ccccc12`: the survival is inactive: 97%.

Consider `COC(=O)c1ccccc1NC(=O)Cn1c(=O)n(-c2cccc(C(F)(F)F)c2)c(=O)c2c(C)c(C)sc21`, for which the survival was inactive: 66%.

On to `COCCCNC(=O)c1ccc(Cn2c(SCc3cccc(C)c3)nc3cccnc32)cc1`, for which the survival is inactive: 87%.

`Cc1ccc(C)c(N2CCN(C(=O)c3cc(S(=O)(=O)N4CCCCCC4)cn3C)CC2)c1`: the survival is inactive: 91%.

`Cc1ccc(S(=O)(=O)NCC2CCC(C(=O)NCCc3ccc(Cl)cc3)CC2)cc1` (stereo not given): the survival was inactive: 89%.

Consider `CCN(CC)S(=O)(=O)c1ccc2oc(C(=O)NCc3ccccc3OC)c(C)c2c1`, for which the survival is inactive: 71%.

For `CCOc1ccc(N(CC)S(=O)(=O)N2CCCC(C(=O)NCCc3ccc(OC)cc3)C2)cc1` (stereo not given), the survival was inactive: 71%.

Take `O=S(=O)(CCn1cccc1)CCn1cccc1`: the survival is inactive: 71%.

In the case of `CCOCCCN(Cc1ccco1)C(=O)c1cc2c(=O)[nH]c3ccc(C)cc3c2s1`, the survival was inactive: 88%.

`COc1ccc(/C=C(\C#N)c2nc3ccccc3n2C)c(OC)c1`: the survival is active: 29%.

Regarding `O=S(=O)(c1ccccc1)c1nnn2c1nc(NCc1ccccc1)c1sccc12`, the survival is inactive: 87%.

`COCCNC(=O)Cn1c(=O)n(CCCCCC(=O)Nc2ccccc2)c(=O)c2sccc21`: the survival was inactive: 102%.

With `O=C(NCc1cccs1)c1ccc(Cn2c(SCc3ccc(F)cc3)nc3cccnc32)cc1`, the survival was inactive: 84%.

Take `Cc1ccc(Cl)cc1N1CCN(C(=O)CN2C(=O)CSc3c2c(C)nn3-c2ccccc2)CC1`: the survival was inactive: 94%.

Regarding `COc1cccc(NC(=O)c2cnc(SCC(=O)N3CCOCC3)n(C)c2=O)c1`, the survival was inactive: 120%.

Turning to `CCc1ccc2c(c1)-c1ccccc1S(=O)(=O)N2CC(=O)N1CCCCC1`, the survival was inactive: 77%.

In the case of `COc1ccc(-c2cn3c(n2)sc2cc(C(=O)NCCc4ccc(OC)cc4OC)ccc23)cc1`, the survival was inactive: 65%.

For the compound `NNC(=O)CNC(=O)c1ccc2c(c1)OCO2`, the survival was inactive: 115%.

Turning to `CCOc1ccc(CNS(=O)(=O)c2ccc(-c3coc(C)n3)cc2)cc1OC`, the survival was inactive: 81%.

As to `CCN(Cc1ccccc1)C(=O)c1sc2nc3n(c(=O)c2c1C)CCCC3`, the survival is inactive: 80%.

In the case of `CCN(CC)CCCNC(=O)c1nn(-c2ccc(C)cc2)c(=O)c2c1c1ccccc1n2C`, the survival was inactive: 85%.

Regarding `OC(COC(c1ccccc1)c1ccccc1)CN1CCCCC1` (stereo not given), the survival was inactive: 67%.

Turning to `CCCCN(C)CCCNC(=O)Cn1ncc2c3ccccc3n(Cc3cc(C)ccc3C)c2c1=O`, the survival is inactive: 98%.

For the compound `O=C(O)COc1nsnc1N1CCOCC1`, the survival was inactive: 78%.

For the compound `O=C(CN1CCOCC1)NC12CC3CC(CC(C3)C1)C2`, the survival is inactive: 98%.

Regarding `CCC(=O)N1c2ccc(S(=O)(=O)CCC(=O)Nc3ccc(Br)c(C)c3)cc2CC1C` (stereo not given), the survival is inactive: 72%.

For the compound `COc1ccccc1CNC(=O)c1cc2c(s1)-c1ccccc1OC2`, the survival was inactive: 61%.

Take `CCc1ccc(S(=O)(=O)c2c(C(=O)c3ccccc3)cnc3ccc(CC)cc23)cc1`: the survival was inactive: 70%.

Take `O=S(=O)(c1cccc(F)c1)N1CCC(Oc2ccc(-n3cnnn3)cc2)CC1`: the survival is inactive: 79%.

For `CCOCCCNC(=O)c1c(NC(=O)Cc2coc3ccc(C)cc23)sc2c1CCC2`, the survival was inactive: 95%.

Turning to `CCCCc1nc2ccccc2c(C(=O)O)c1C`, the survival is inactive: 75%.

Take `CC(C)c1ccc(OCC(O)CN2CCN(c3ccc(F)cc3)CC2)cc1` (stereo not given): the survival was inactive: 56%.

Turning to `CCOC(=O)c1c(-c2ccccc2)oc2cc(Br)c(OCC(N)=O)cc12`, the survival was inactive: 79%.

As for `COc1ccccc1CN1CCC(CNC(=O)c2cnn(-c3ccc(Cl)cc3)c2C2CCN(C(=O)OC(C)(C)C)CC2)CC1`, the survival is inactive: 113%.
